Laboratory results taken from the supplement of paper PMC7826260.
The list shows a part of the results. Each Rep nickase domain was tested in vitro on the same pool of single strands for 1 h at 37 °C with 3 µM enzyme; only the middle of the 90-letter strands is printed. A value is the log2 ratio of uncut reads to the pool without enzyme; the lower, the more was cut; hits are not called. The scaling is to total reads; values above 0 arise when much of the pool is cut.

Columns and labels:
Assay in all cases: uncleaved DNA left, log2 of reads against the no-enzyme library (log2 ratio); higher = less cleavage (more negative = more Rep cleavage of the k-mer); sequences stand for … in CTCGTCCG…ACCGGAGA
[1] = test system: T1, Rep nickase domain of Muscovy duck circovirus
T1 sequence (residues 1-111, tag not shown): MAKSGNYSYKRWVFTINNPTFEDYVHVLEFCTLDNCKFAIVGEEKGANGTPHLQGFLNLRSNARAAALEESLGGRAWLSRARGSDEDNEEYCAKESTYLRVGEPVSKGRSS
Protocol: (§1)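 A pool of 90-nt single-stranded DNAs with seven random bases just before the constant AC of the nick site (name = the seven bases) was cut by 3 µM recombinant His6-SUMO-tagged Rep nickase domain (300 nM DNA, 50 mM HEPES pH 8.0, 50 mM NaCl, 1 mM MnCl2, 1 h, 37 °C, three replicates). Uncut DNA was amplified and sequenced.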

[2] = test system: T2, Rep nickase domain of banana bunchy top virus
T2 sequence (residues 1-94, tag not shown): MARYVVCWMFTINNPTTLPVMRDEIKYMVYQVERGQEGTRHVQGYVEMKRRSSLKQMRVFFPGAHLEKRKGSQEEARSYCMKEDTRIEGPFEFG
Protocol: as §1

[3] = test system: T3, Rep nickase domain of cabbage leaf curl virus
T3 sequence (residues 1-116, tag not shown): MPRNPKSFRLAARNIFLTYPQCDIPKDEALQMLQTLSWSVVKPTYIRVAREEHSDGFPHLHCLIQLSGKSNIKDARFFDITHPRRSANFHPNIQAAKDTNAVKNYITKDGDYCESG
Protocol: as §1

[4] = test system: T4, Rep nickase domain of chickpea chlorotic dwarf virus
T4 sequence (residues 1-124, tag not shown): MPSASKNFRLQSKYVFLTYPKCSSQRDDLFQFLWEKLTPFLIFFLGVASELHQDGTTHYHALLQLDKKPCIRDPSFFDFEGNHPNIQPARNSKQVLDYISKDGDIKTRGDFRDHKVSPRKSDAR
Protocol: as §1

[5] = test system: T5, Rep nickase domain of faba bean necrotic yellows virus
T5 sequence (residues 1-98, tag not shown): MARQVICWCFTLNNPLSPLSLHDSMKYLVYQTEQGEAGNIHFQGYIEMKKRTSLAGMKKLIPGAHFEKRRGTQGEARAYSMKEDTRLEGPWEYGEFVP
Protocol: as §1

[6] = test system: T6, Rep nickase domain of maize striate mosaic virus
T6 sequence (residues 1-117, tag not shown): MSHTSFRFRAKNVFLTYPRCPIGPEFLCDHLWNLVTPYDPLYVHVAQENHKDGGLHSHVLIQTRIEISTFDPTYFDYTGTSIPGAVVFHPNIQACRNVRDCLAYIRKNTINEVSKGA
Protocol: as §1

[7] = test system: T7, Rep nickase domain of porcine circovirus 2
T7 sequence (residues 2-116, tag not shown): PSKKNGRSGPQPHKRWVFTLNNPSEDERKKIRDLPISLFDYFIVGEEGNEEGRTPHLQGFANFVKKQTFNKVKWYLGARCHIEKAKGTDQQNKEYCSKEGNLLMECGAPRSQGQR
Protocol: as §1

[8] = test system: T8, Rep nickase domain of tomato golden mosaic virus
T8 sequence (residues 1-124, tag not shown): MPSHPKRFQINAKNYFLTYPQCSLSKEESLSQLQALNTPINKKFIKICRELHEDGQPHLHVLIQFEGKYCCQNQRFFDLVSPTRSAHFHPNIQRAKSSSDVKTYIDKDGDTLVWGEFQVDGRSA
Protocol: as §1

[9] = test system: T9, Rep nickase domain of tomato yellow leaf curl virus
T9 sequence (residues 1-136, tag not shown): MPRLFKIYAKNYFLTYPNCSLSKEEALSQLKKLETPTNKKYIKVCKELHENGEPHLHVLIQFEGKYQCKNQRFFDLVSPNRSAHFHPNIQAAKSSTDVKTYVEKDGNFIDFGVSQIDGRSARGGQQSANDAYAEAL
Protocol: as §1

[10] = test system: T10, Rep nickase domain of wheat dwarf virus
T10 sequence (residues 1-137, tag not shown): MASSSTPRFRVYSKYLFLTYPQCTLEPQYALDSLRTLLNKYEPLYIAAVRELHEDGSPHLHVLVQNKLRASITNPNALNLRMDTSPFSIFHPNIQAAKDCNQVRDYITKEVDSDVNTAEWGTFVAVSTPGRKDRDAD
Protocol: as §1

| Sequence | uncleaved DNA left (log2) [1] | uncleaved DNA left (log2) [2] | uncleaved DNA left (log2) [3] | uncleaved DNA left (log2) [4] | uncleaved DNA left (log2) [5] | uncleaved DNA left (log2) [6] | uncleaved DNA left (log2) [7] | uncleaved DNA left (log2) [8] | uncleaved DNA left (log2) [9] | uncleaved DNA left (log2) [10] |
| --- | --- | --- | --- | --- | --- | --- | --- | --- | --- | --- |
| ATCCGGG | 0.0897 | 0.0726 | 0.437 | 0.709 | -0.0669 | 0.407 | 0.243 | 0.0772 | 0.0632 | 0.0542 |
| CGCGCAA | -0.143 | -0.0377 | -0.26 | -0.0374 | -0.0216 | -0.271 | -0.181 | -0.162 | -0.0816 | -0.0939 |
| TTGTTAA | 0.11 | 0.127 | 0.376 | 0.56 | 0.0574 | 1.11 | 0.0524 | 0.206 | -0.00401 | 0.174 |
| AGTGCGC | -0.0149 | -0.0321 | -0.762 | -0.119 | 0.109 | -0.692 | 0.221 | -0.08 | 0.0765 | -0.0774 |
| TCCTTGC | -0.0196 | -0.0854 | -0.739 | -0.4 | 0.0269 | -1.17 | 0.102 | -0.0577 | -0.0218 | -0.189 |
| CTAGCAC | -0.0702 | -0.0446 | -0.275 | -0.55 | -0.136 | -0.759 | -0.0057 | -0.0888 | 0.0418 | -0.099 |
| GCACAAT | 0.027 | 0.0935 | 0.187 | 0.0576 | 0.114 | 0.234 | -0.0826 | 0.03 | 0.147 | 0.124 |
| CCTCGAA | 0.000146 | -0.0504 | -0.13 | -0.368 | -0.0723 | -0.88 | 0.103 | -0.0217 | -0.109 | -0.0939 |
| CGCTAAA | -0.0391 | -0.0964 | -0.107 | -0.262 | -0.0498 | -0.561 | -0.129 | -0.107 | -0.0407 | -0.0291 |
| AGCCTAG | 0.0579 | 0.0868 | -0.109 | -0.072 | -0.0303 | -0.505 | 0.197 | 0.0151 | 0.037 | 0.0011 |
| CTTATGA | -0.0268 | 0.107 | 0.0979 | 0.191 | 0.0725 | -0.883 | 0.0762 | 0.0569 | 0.162 | 0.0917 |
| ACTCAAC | -0.0297 | 0.0149 | -0.215 | -1.63 | 0.0105 | -0.764 | 0.0353 | -0.0241 | -0.139 | -0.0543 |
| CCTGCTA | -0.144 | -0.0613 | -0.257 | -1 | 0.0158 | -0.899 | 0.0437 | -0.0101 | -0.144 | -0.275 |
| GTCTGTA | 0.108 | -0.00198 | 0.216 | 0.776 | 0.00253 | 1.51 | 0.0415 | -0.0593 | 0.0507 | -0.0837 |
| TAAGACC | 0.00364 | 0.11 | -0.174 | -1.37 | 0.0463 | -0.431 | 0.112 | 0.0132 | 0.0196 | -0.022 |
| CGAGCTT | -0.0126 | 0.0958 | 0.127 | -0.552 | -0.0807 | 0.629 | -0.311 | -0.0694 | -0.02 | 0.182 |
| AACAGCT | -0.0113 | -0.0617 | -0.413 | -1.36 | -0.0289 | -0.775 | -0.328 | 0.0514 | 0.0179 | 0.058 |
| GAAGGCT | -0.0132 | -0.00811 | 0.155 | 0.178 | -0.0925 | 0.805 | -0.0101 | -0.0376 | -0.0906 | 0.0193 |
| GGTTGGC | -0.0799 | 0.0234 | 0.539 | 1.16 | -0.0504 | 1.47 | 0.0905 | 0.0299 | 0.0233 | -0.0123 |
| GTCTGGG | 0.0435 | -0.00988 | 0.161 | 0.517 | -0.0953 | 0.559 | 0.0086 | 0.0567 | -0.02 | -0.108 |
| ACTACTG | 0.0132 | 0.0807 | -0.217 | -0.118 | 0.072 | -0.288 | 0.148 | 0.0825 | -0.0421 | 0.0922 |
| TTTTAGT | -3.19 | -0.185 | -0.164 | -1.05 | -0.0432 | -0.881 | -3.41 | -0.0668 | 0.0163 | -0.104 |
| GCCCAGA | 0.175 | 0.169 | 0.299 | 0.623 | 0.158 | 0.203 | 0.253 | 0.257 | 0.097 | 0.128 |
| TCTGTCA | -0.049 | -0.107 | -0.0618 | -0.751 | 0.0322 | -0.395 | -0.133 | -0.0614 | -0.0157 | -0.0315 |
| CTTGGCG | 0.203 | 0.0939 | -0.508 | 0.682 | 0.0256 | -0.519 | 0.218 | 0.0211 | 0.116 | 0.0323 |
| AGTCATT | 0.025 | -1.12 | 0.308 | -0.702 | -1.88 | 0.532 | -3.46 | -0.0387 | 0.15 | 0.187 |
| TTCAAGA | 0.00394 | 0.000408 | 0.246 | 0.278 | 0.0631 | -0.458 | 0.0353 | 0.0315 | 0.0457 | 0.0469 |
| GACTCGG | -0.067 | -0.0324 | 0.451 | 1.4 | 0.0336 | 1.83 | 0.0974 | 0.0872 | -0.0989 | 0.011 |
| GCGCAGG | -0.318 | -0.212 | -0.201 | 0.38 | 0.00228 | 0.404 | -0.163 | -0.0894 | -0.183 | -0.165 |
| CCTCTAT | -0.0132 | -0.201 | -0.0315 | -0.706 | -0.186 | -0.276 | -0.192 | -0.135 | -0.198 | -0.0643 |
